53 molecules from PubChem BioAssay AID1346428 (National Center for Advancing Translational Sciences (NCATS), 2018) can be followed below.

Values joined by “and” are separate entries in the source; they are usually repeats but may differ in a detail not shown here. Equal entries are not always repeated. The campaign covered roughly 48,000 compounds. About 1,200 (2.5%) were called active. Roughly 2% stayed inconclusive and do not appear here.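 How the source made its calls: active means activation of at least 60% and not above a set upper limit (about 1 call in 100 departs from these limits); inconclusive means activation of 40% to 60%, or above that upper limit; inactive means activation under 40%.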 This is one part of the list.

This experiment concerns the target Probable G-protein coupled receptor 32 (Homo sapiens) (UniProt O75388). Description: qHTS for Agonists of Human Resolvin D1 Receptor DRV1. Further: 0% is about no effect. The note with it: CHO-K1 GPR32 beta-arrestin PathHunter luminescence, 90 min; at 76.9 µM; stronger effect = higher value; zero percent set by DMSO-only wells. In short, it runs like this: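 Engineered CHO-K1 line co-expressing GPR32-ProLink and EA-beta-arrestin. Compound treatment lasted 90 min at 37 °C. Luminescence was recorded after 1 h with substrate at ambient temperature, relative to DMSO basal wells.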
Sequence of UniProt O75388 (O75388 whole entry, looked up): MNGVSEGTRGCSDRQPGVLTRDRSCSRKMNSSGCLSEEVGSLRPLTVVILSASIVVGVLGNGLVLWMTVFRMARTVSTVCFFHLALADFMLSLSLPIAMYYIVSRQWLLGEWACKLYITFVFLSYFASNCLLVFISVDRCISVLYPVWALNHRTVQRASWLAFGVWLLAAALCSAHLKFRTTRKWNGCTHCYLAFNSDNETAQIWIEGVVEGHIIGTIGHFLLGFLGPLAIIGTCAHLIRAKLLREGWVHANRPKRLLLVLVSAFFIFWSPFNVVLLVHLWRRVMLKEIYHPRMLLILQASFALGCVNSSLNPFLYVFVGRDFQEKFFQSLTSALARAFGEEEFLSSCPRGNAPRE
Background: qHTS replaces the single test concentration by a dilution series.
As for `COCCNC(=O)c1ccc2c(c1)N(Cc1ccc(C(F)(F)F)cc1)C(=O)c1ccccc1S2`, the activation is inactive: 17.5%.

For the molecule `COc1ccc(N2CCN(C(=O)c3cn(C)c4ccc(S(=O)(=O)N(C)C5CCCCC5)cc4c3=O)CC2)cc1`, the activation is inactive: 2.02%.

On to `COc1cc2ccccc2cc1C(=O)Nc1cccc(-c2nc3ccccc3o2)c1`, for which the activation was inactive: 8.85%.

Take `Cc1ccccc1NC(=O)CCOc1ccccc1`: the activation was inactive: -16.2%.

On to `Cc1ccc(NC(=O)c2c(C(=O)Nc3ccccc3)sc3nc(C)cc(=O)n23)cc1`, for which the activation was inactive: -2.54%.

For the molecule `COc1ccc(CNC(=O)C2CCN(S(=O)(=O)c3c(C)noc3/C=C/c3cccs3)CC2)cc1`, the activation was inactive: -19.9%.

As to `CC(C(=O)NCc1cccc(Br)c1)n1ncn2cccc2c1=O` (stereo not drawn), the activation was inactive: -18.9%.

For `Cc1ccccc1S(=O)(=O)Cc1ccc(C(=O)NCc2ccccc2Cl)o1`, the activation is inactive: 42%.

Consider `Nc1nn(-c2ccccc2)nc1C(=O)OCc1ccccc1Br`, for which the activation was inactive: -5.18%.

Regarding `Cc1ccc(NC(=O)c2cc(CN3CCOCC3)on2)cc1Cl`, the activation is inactive: 8.55%.

On to `COc1cc(-c2nc3ccc(Cl)cn3c2Nc2ccc3c(c2)OCO3)ccc1O`, for which the activation is inactive: -11.5%.

On to `Cn1cc(-c2cc3n(n2)CCC(=O)N3CCCC(=O)Nc2ccccc2Cl)c2ccccc21`, for which the activation was active: 60.3%.

On to `CC1=C(C(=O)Nc2ccc(C)cc2Cl)C2(CCCCC2)OC1=O`, for which the activation was inactive: -23.4%.

As for `COc1ccc2c(c1)CCc1c(C(=O)Nc3c(C)nn(Cc4c(Cl)cccc4Cl)c3C)noc1-2`, the activation was inactive: 3.67%.

With `CCOC(=O)c1c(C)[nH]c(C)c1S(=O)(=O)NCC(=O)Nc1ccc(CC)cc1`, the activation is inactive: 6.48%.

In the case of `CCc1ccccc1NC(=O)c1cc2sc(Cl)cc2n1CC`, the activation was inactive: -15.8%.

On to `O=C(c1cccs1)c1cn(CCOc2ccc(F)cc2)c2ccccc12`, for which the activation is inactive: -33.6%.

On to `COc1ccccc1N1CCN(CCCNc2cc(=O)n(C)c(=O)n2C)CC1`, for which the activation is inactive: -9.5% and inactive: -3.31%.

As to `O=C(Cn1cnc2onc(-c3ccc(F)cc3)c2c1=O)N1CCN(c2ccccc2F)CC1`, the activation is inactive: 13.3%.

As for `CCOC(=O)c1noc2ncn(CC(=O)Nc3cc(Cl)ccc3OC)c(=O)c12`, the activation is inactive: 12.1%.

For `O=C(O)Cc1sc(Nc2ccc(C(=O)O)cc2)nc1-c1ccccc1`, the activation is inactive: 5.77%.

In the case of `CC(=O)N1CCOc2cc(S(=O)(=O)Nc3cc(C(F)(F)F)ccc3Cl)c(C)cc21`, the activation was inactive: -8.98%.

For the molecule `CCCNC(=O)c1c(NC(=O)c2ccc(C)cc2)sc2c1CCCCC2`, the activation was inactive: 0.26%.

Consider `COc1ccc2c(c1)c1c(c(=O)n(Cc3ccccc3)c(=O)n1Cc1ccccc1)n2C`, for which the activation is inactive: -1.82%.

In the case of `CCSc1ncc(Cl)c(C(=O)N(Cc2ccc(C(C)(C)C)cc2)C2CCS(=O)(=O)C2)n1` (stereo not drawn), the activation was inactive: -26.2%.

Turning to `CCOC(=O)c1cccc(NC(=O)Nc2ccc3c(c2)N(C)C(=O)c2ccccc2S3)c1`, the activation is inactive: 8.86%.

Take `O=C(CCCN1CCC(O)(c2cccc(C(F)(F)F)c2)CC1)c1ccc(F)cc1`: the activation was inactive: 7.76% and inactive: -12.6%.

For `CCOC(=O)c1c(C)oc2nc(C)nc(NCCCN3CCN(c4cc(Cl)ccc4C)CC3)c12`, the activation is inactive: -26.4%.

As for `Cc1ccc(-c2noc(-c3nnn(CC(=O)Nc4cccc(C(F)(F)F)c4)c3N)n2)cc1`, the activation was inactive: 1.72%.

For the molecule `O=C(NCCCN1CCN(c2ccccc2F)CC1)C1COc2ccccc2C1` (stereo not drawn), the activation was inactive: -16.7%.

In the case of `Cc1ccc(C(=O)NCC(=O)OCc2cc(=O)n3nc(C4CC4)sc3n2)cc1`, the activation is inactive: 6.73%.

Consider `O=C(O)c1cccnc1SCc1cccc(Cl)c1`, for which the activation is inactive: 8.35%.

Take `COc1ccc(S(=O)(=O)Cc2ccc(C(=O)N3CCN(c4cc(C)ccc4C)CC3)o2)cc1`: the activation was inactive: 21.2%.

With `O=C(Nc1cccc(-c2nc3ccccc3[nH]2)c1)c1c(F)cccc1F`, the activation is inactive: 10.9%.

As for `CC(C)c1ccc(S(=O)(=O)c2nnn3c2nc(N2CCOCC2)c2sccc23)cc1`, the activation was inactive: -2.84%.

On to `CC1CCN(S(=O)(=O)c2ccc3c(ccn3CC(=O)NCc3ccc(N(C)C)cc3)c2)CC1`, for which the activation was inactive: -10.6%.

Consider `Cc1ccccc1OCC(=O)Nc1c(C)ccc2nsnc12`, for which the activation is inactive: -2.67%.

For the molecule `COc1nc(N)nc2c1ncn2[C@@H]1O[C@H](CO)[C@@H](O)[C@@H]1O`, the activation was inactive: 4.02%.

Regarding `CCC1CN(C(=O)N2CCC(C(=O)N3CCN(c4ccc(F)cc4)CC3)CC2)c2ccccc2O1` (stereo not drawn), the activation was inactive: -11.3%.

In the case of `CCCCc1nn2c(=O)cc(COC(=O)C(C)Oc3ccccc3)nc2s1` (stereo not drawn), the activation is inactive: 1.25%.

`Cc1c(C(=O)Nc2ccccc2Br)oc2ccc(S(=O)(=O)N3CCOCC3)cc12`: the activation is inactive: -8.85%.

Take `COc1ccc(CCC(=O)NCc2nc3cccnc3n2Cc2cccc(OC)c2)cc1`: the activation was inactive: -20.2%.

As to `COc1ccc(Cl)cc1NC(=O)Cn1nc(C(F)(F)F)c2c1CCC2`, the activation was inactive: -3.49%.

Take `Cc1ccc(NC(=O)C2CCN(C(=O)c3cnn(-c4ccccc4)c3-n3cccc3)CC2)cc1`: the activation is inactive: 2.24%.

`CCOC(=O)N1CCc2c(sc3c2c(=O)n(-c2ccc(CC)cc2)c(=O)n3CC(=O)c2ccccc2)C1`: the activation is inactive: -14%.

Consider `COc1ccc2c(c1)CC(NC(=O)Nc1ccc(NC(C)=O)cc1)CO2` (stereo not drawn), for which the activation is inactive: -7.03%.

For the molecule `CC(C)CNC(=O)c1c(-c2ccccc2)c(-c2ccccc2)nn(C)c1=O`, the activation is inactive: -14.4%.

With `Cc1ccccc1Cn1c(=O)n(CCCCC(=O)NCc2ccccc2Cl)c(=O)c2ccccc21`, the activation was inactive: -14.5%.

With `O=C(NCc1ccccc1Cl)c1ccc(NC(=O)c2nsc3ccccc23)cc1`, the activation was inactive: -21.7%.

As for `COc1ccccc1CNC(=O)C1CCN(Cc2cc3ccccc3n2Cc2cccc(C)c2)CC1`, the activation was inactive: -34.3%.

`O=C(CSc1nnc(-c2ccncc2)n1-c1ccccc1)Nc1ccc(Br)cc1`: the activation was inactive: 2.04%.

For the molecule `CCOc1ccc2nc(N3CCC(C(=O)Nc4ccc(Br)cc4F)CC3)sc2c1`, the activation was inactive: -21.7%.

With `CCOc1ccc(NC(=O)C2CCN(S(=O)(=O)c3ccc4c(c3)oc(=O)n4C)CC2)cc1`, the activation is inactive: -6.34%.
